Results as given in PubChem BioAssay AID588855 (National Center for Advancing Translational Sciences (NCATS), 2011).
Hit rate of the full screen: of about 410,000 compounds, about 5,000 (1.2%) were called active. Inconclusive results, whose numbers are uncertain, are shown with a selection of clear calls. Calls come from the whole dose curve; as a rule, active = well fitted inhibition curve with a large enough effect; inconclusive = small, poorly fitted or top-dose-only effect; inactive = no such curve, though single readings can be large or run the other way. Where the call is inconclusive, the potency comes from a doubtful curve fit.

Assay: qHTS for Inhibitors of TGF-b; note: nearly all actives have a fitted effect of over 65% in size
Conditions: HepG2 CAGA-GFP TGF-b/SMAD3 reporter, GFP fluorescence, 18 h, TGF-beta stimulated, 500 pg/mL final; series mostly up to 46.1 µM; activity, negative = inhibition: at the top concentration
Summary of the method: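 Inhibition was scored as loss of TGF-beta-induced (500 pg/mL final, 18 hours, 37 degrees C) GFP in HEPG2 cells carrying a CAGA-GFP reporter, in DMEM with 1% FBS. Well GFP was summed per cell; Activity was normalised to unstimulated and stimulated DMSO wells, then concentration-response fitting.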
% is set by controls: 0 for no effect and ±100 for the full control effect; potency is the fitted concentration of half-maximal effect; tags give direction and shape of the fitted curve.

| SMILES | Potency | activity, negative = inhibition |
| --- | --- | --- |
| Nc1ccccc1O | inconclusive: 35.5 µM [inhibitor, single point] | – |
| CC(C)CN(C(=O)COC(=O)CCCc1c[nH]c2ccccc12)c1c(N)n(Cc2ccccc2)c(=O)[nH]c1=O | – | inactive: -2.48% |
| CCCn1c(CN2CCN(C(=O)OCC)CC2)nc2c1c(=O)n(C)c(=O)n2C | – | inactive: 3.72% |
| Cc1nc2ccccc2c(=O)n1/N=C/c1cc(Br)ccc1O | – | inactive: -14.1% |
| CCn1c(Cn2nnc(-c3ccccc3)n2)nnc1SCc1ccc(Cl)c(Cl)c1 | inconclusive: 35.5 µM [inhibitor, single point] | – |
| Cc1ccc(CCNC(=O)c2nc(CS(=O)(=O)c3ccc(Cl)cc3)no2)cc1 | inconclusive: 35.5 µM [inhibitor, single point] | – |
| Oc1ccccc1/C=N/Nc1nc2ccccc2o1 | inconclusive: 1.78 µM [inhibitor, full curve, poor fit] | – |
| O=[N+]([O-])c1ccc(Oc2ccc(Oc3ccc(C(F)(F)F)cn3)cc2)nc1 | inconclusive: 10 µM [inhibitor, partial curve, poor fit] | – |
| C[C@H](CO)N1C[C@H](C)[C@@H](CN(C)Cc2ccc(Cl)c(Cl)c2)Oc2c(NS(=O)(=O)c3cccs3)cccc2C1=O | inconclusive: 4.47 µM [inhibitor, full curve, poor fit] | – |
| COc1ccccc1NC(=O)CN1C(=O)CC(c2ccc(C)c(C)c2)=Nc2ccccc21 | inconclusive: 7.08 µM [inhibitor, full curve, poor fit] | – |
| c1ccc(-n2c(SCc3ccncc3)nnc2-c2ccco2)cc1 | inconclusive: 0.562 µM [inhibitor, full curve, poor fit] | – |
| CC(C)NC(=S)N/N=C1\CCCCC1C1CCCCC1 (configuration not stated) | inconclusive: 4.47 µM [inhibitor, full curve, poor fit] | – |
| CN1C(=O)c2c(sc3c2CC(C)(C)SC3)N2CCN=C12 | inconclusive: 5.62 µM [inhibitor, single point] | – |
| C=CCNC(=O)c1ccccc1NC(=O)c1ccc(Cl)c(S(=O)(=O)Nc2cc(C)ccc2C)c1 | inconclusive: 10 µM [inhibitor, partial curve, poor fit] | – |
| CN1CSC2=C(C#N)C(c3cccc(OCc4ccccc4)c3)CC(=O)N2C1 (configuration not stated) | inconclusive: 15.8 µM [inhibitor, single point] | – |
| Cc1ccc(CNC(=O)Cn2ncc3c([nH]c4ccc(C)cc43)c2=O)cc1 | inconclusive: 0.794 µM [inhibitor, full curve, poor fit] | – |
| COC(=O)c1ccc(Cl)cc1NC(=O)NCc1c(-n2cccc2)sc2c1CCCC2 | – | inactive: -2.95% |
| Cc1ccc(OCc2nnc(SCC(=O)c3cccc([N+](=O)[O-])c3)n2C)cc1 | inconclusive: 2.51 µM [inhibitor, full curve, poor fit] | – |
| CC(=O)Nc1nc2ccc(S(=O)(=O)N3CCCCC3)cc2s1 | inconclusive: 7.08 µM [inhibitor, partial curve] | – |
| CC[C@@H](C)[C@H](NC(=O)OCc1ccccc1)c1nnc([C@@H](NC(=O)OCc2ccccc2)[C@@H](C)CC)o1 | inconclusive: 10 µM [inhibitor, partial curve, poor fit] | – |
| C=C(C)CNC(=S)N/N=C1\CCCCc2ccccc21 | inconclusive: 3.98 µM [inhibitor, single point] | – |
| Cc1cc(C)c(S(=O)(=O)c2ccccc2C)c(SCC(C)C)n1 | – | inactive: -28.1% |
| S=C(Nc1ccccc1)Nc1nccs1 | inconclusive: 0.447 µM [inhibitor, full curve, poor fit] | – |

| SMILES | Potency | activity, negative = inhibition |
| --- | --- | --- |
| CCOC(=O)c1ccc(-n2c(C)nc3c(cnn3-c3ccccc3C)c2=O)cc1 | inconclusive: 0.112 µM [inhibitor, full curve, poor fit] | – |
| CCOC(=O)c1ccc(NC(=O)c2csc3c2CCCC3)cc1 | inconclusive: 20 µM [inhibitor, single point] | – |
| CCOc1ccc(C(=O)Nc2ccc(C(=O)OCc3cc(=O)n4ccsc4n3)cc2)cc1 | – | inactive: 0.662% |
| CN(C)S(=O)(=O)c1cccc(NC(=O)COC(=O)c2ccc3ccccc3n2)c1 | – | inactive: -1.35% |
| CCc1ccccc1NC(=O)CN1CCN(C(=O)c2ccc(OCc3cn4ccccc4n3)cc2)CC1 | inconclusive: 22.4 µM [inhibitor, single point] | – |
| COc1ccc(-c2cnc(C(O)c3ccc(-c4ccccc4)cc3)[nH]2)cc1 (configuration not stated) | inconclusive: 15.8 µM [inhibitor, single point] | – |
| CCOCc1c(C(=O)OCC(=O)Nc2ccc(C)c(S(=O)(=O)N(C)C)c2)oc2ccccc12 | – | inactive: -3.6% |
| COc1ccc(/C=C(\C#N)c2c[nH]c3ccccc23)cc1 | inconclusive: 35.5 µM [inhibitor, single point] | – |
| CCn1c(CN2CCCCC2)nc2cc(NC(=O)c3ccccc3[N+](=O)[O-])ccc21 | inconclusive: 15.8 µM [inhibitor, single point] | – |
| COc1cc2[nH]c(=S)n(C3CCN(Cc4ccccc4)CC3)c(=O)c2cc1OC | – | inactive: -7.33% |
| CNC(=O)c1ccsc1NC(=O)CCS(=O)(=O)c1ccc(F)cc1 | inconclusive: 15.8 µM [inhibitor, single point] | – |
| CC(C)(C)NC(=O)N1CCN(c2nc3ccc(Cl)cc3s2)CC1 | – | inactive: 0% |
| CC(C)c1ccc(/C=C/c2[nH]c(=O)[nH]c(=O)c2[N+](=O)[O-])cc1 | inconclusive: 35.5 µM [inhibitor, single point] | – |
| CCOc1ccccc1NC(=O)C1CCCN1S(=O)(=O)c1ccccc1C(F)(F)F (configuration not stated) | – | inactive: -28.6% |
| Cn1ccc2c(N3CCCC3)cc3c(c21)C1CCC3O1 (configuration not stated) | inconclusive: 35.5 µM [inhibitor, single point] | – |
| Cc1cc(Br)cn2c(Cc3ccsc3)c(-c3ccc(C#N)cc3)nc12 | inconclusive: 11.2 µM [inhibitor, single point] | – |
| Cc1ccnc2c(Cl)c(Cl)ccc12 | – | inactive: -0.276% |
| O=C(c1ccc2c(c1)N(Cc1ccc(F)cc1)C(=O)c1ccccc1S2=O)N1CCOCC1 (configuration not stated) | inconclusive: 14.1 µM [inhibitor, partial curve, poor fit] | – |
| CC(OC(=O)CNS(=O)(=O)c1ccc2ccccc2c1)C(=O)N(C)c1ccccc1 (configuration not stated) | inconclusive: 5.01 µM [inhibitor, full curve, poor fit] | – |
| COc1ccc(Cl)cc1NC(=O)CSc1c2c(nc3ccccc13)CCC2 | inconclusive: 15.8 µM [inhibitor, partial curve, poor fit] | – |
| OC[C@@H]1CN(Cc2ccc(Cl)cc2)C[C@H](n2cnc3c(N4CCCC4)ncnc32)O1 | – | inactive: 3.73% |
| CC(C)n1nc(C(=O)Nc2nc3ccc(S(C)(=O)=O)cc3s2)c2ccccc2c1=O | – | inactive: -22.4% |
| CCN(CC(=O)Nc1ccc(OC)cc1)C(=O)Cc1cccs1 | – | inactive: -7.19% |

| SMILES | Potency | activity, negative = inhibition |
| --- | --- | --- |
| CCCC[C@H]1COCCS(=O)(=O)N1Cc1ccccc1F | inconclusive: 4.47 µM [inhibitor, full curve, poor fit] | – |
| CC(C)(C)OC(=O)[C@H](Cc1ccccc1)NC(=O)c1nc[nH]c1C(=O)N[C@@H](Cc1ccccc1)C(=O)OC(C)(C)C | active: 12.6 µM | – |
| Cc1ccc(SCC(=O)NC(=O)c2ccc(S(=O)(=O)N(C)C)cc2)cc1C | inconclusive: 15.8 µM [inhibitor, single point] | – |
| CC[C@]12c3[nH]c4ccccc4c3CCN1C(=O)C(CC(=O)NCC13CC4CC(CC(C4)C1)C3)C[C@@H]2C(=O)N1CCN(C(=O)c2ccco2)CC1 (some centres not stated) | inconclusive: 17.8 µM [inhibitor, single point] | – |
| CCCCCC1(C(=O)OCC)CC(CSC(=N)N)OC1=O (configuration not stated) | active: 12.6 µM | – |
| O=C(c1cc2ccccc2o1)N1CCN(C/C=C/c2ccccc2)CC1 | inconclusive: 12.6 µM [inhibitor, single point] | – |
| COc1ccc(CN(CC2CCC(C(=O)O)CC2)C(=S)Nc2ccc(C)c(Cl)c2)cc1 (configuration not stated) | inconclusive: 35.5 µM [inhibitor, single point] | – |
| Cc1cc(C)n2nc(SCC(=O)c3ccc[nH]3)nc2n1 | inconclusive: 35.5 µM [inhibitor, single point] | – |
| O=C(NCCO)c1nc(C(=O)c2ccc(Cl)cc2)c2ccccc2n1 | – | inactive: -14% |
| CCOC(=O)c1cc(Br)c(=O)n2ccccc12 | – | inactive: -5.12% |
| CCc1cccc(NC(=O)Cn2c(-c3ccccc3)cc(C(C)=O)c2C)c1 | inconclusive: 35.5 µM [inhibitor, single point] | – |
| CC(=NN1CC(=O)NC1=O)c1ccc([N+](=O)[O-])o1 | – | inactive: 2.51% |
| CC1=Nc2ccccc2/C1=C/c1c(C)[nH]c2ccccc12 | inconclusive: 35.5 µM [inhibitor, single point] | – |
| COc1cc(/C=C/c2noc(-c3ccccc3O)n2)cc(OC)c1OC | inconclusive: 3.98 µM [inhibitor, single point] | – |
| CCOc1ccc(/C=N/NC(=O)c2c(-c3ccccc3)noc2C)cc1 | inconclusive: 35.5 µM [inhibitor, single point] | – |
| CCCCOc1ccc(-c2nnc(N)s2)cc1 | inconclusive: 35.5 µM [inhibitor, single point] | – |
| O=c1cc(C(F)(F)F)c2sc(N3CCCCC3)nc2[nH]1 | inconclusive: 0.398 µM [inhibitor, full curve, poor fit] | – |
| O=C(N/N=C/c1ccco1)c1cc(-c2ccccc2)n[nH]1 | – | inactive: -2.54% |
| O=C(c1oc2ccccc2c1CSCc1ccccc1)N1CCN(c2ncccn2)CC1 | active: 15.8 µM | – |
| Nc1ncnc2c1ncn2C1C=C(CO)C(O)C1O (configuration not stated) | active: 8.91 µM | – |
| O=C(OCC1CCCO1)c1ccc2c(c1)N(Cc1cccc(Cl)c1)C(=O)c1ccccc1S2(=O)=O (configuration not stated) | – | inactive: -26.3% |
